The record followed here is the antibiotic and cytotoxicity screens of Wong et al. (2023).

The list shows a part of the results.

One experiment concerns HSkMC. Put plainly: cytotoxicity call (relative viability < 0.9). The note with it: 10 µM.
In another experiment the test system is HepG2. Kind of experiment: cytotoxicity call (relative viability < 0.9). To be noted: 10 µM.
A further experiment relates to S. aureus RN4220. Put plainly: growth inhibition call (relative growth <= 0.2). To be noted: 50 µM.

Consider `CN(C)c1nc2cc(Cl)ccc2o1`, for which the cytotoxicity call in the experiment with HSkMC and with HepG2 was “inactive” in each case. In the experiment on S. aureus RN4220, the growth inhibition call is “inactive”.

On to `C[C@H](CO)N1C[C@H](C)[C@H](CN(C)S(=O)(=O)c2ccccc2)OCCCC[C@H](C)Oc2ccc(NC(=O)Nc3ccc(F)cc3)cc2C1=O`, for which the cytotoxicity call in the experiment with HSkMC and with HepG2 was “inactive” throughout. Moreover, the growth inhibition call with S. aureus RN4220 was “inactive”.

Turning to `C[C@H]1CN([C@@H](C)CO)C(=O)Cc2cc(NS(=O)(=O)c3cccs3)ccc2O[C@@H]1CN(C)S(=O)(=O)c1cccs1`, the cytotoxicity call in the experiment with HSkMC and in the experiment on HepG2 was “inactive” in each case. The growth inhibition call in the experiment on S. aureus RN4220 was “inactive”.

Regarding `Cc1noc(C)c1NC(=O)N(C)C[C@@H]1OCCCC[C@H](C)Oc2ccc(NS(=O)(=O)c3ccc(Cl)cc3)cc2C(=O)N([C@H](C)CO)C[C@@H]1C`, the cytotoxicity call in the experiment on HSkMC and in the experiment on HepG2 was “inactive” in each case. For the same compound, the growth inhibition call with S. aureus RN4220 was “inactive”.

On to `Cc1noc(C)c1NC(=O)N(C)C[C@@H]1Oc2ccc(NC(=O)c3ccncc3)cc2CC(=O)N([C@@H](C)CO)C[C@@H]1C`, for which the cytotoxicity call in the experiment with HSkMC and with HepG2 was “inactive” each time. Also, the growth inhibition call in the experiment on S. aureus RN4220 is “inactive”.

Consider `S=C=Nc1ccc(N=C=S)cc1`, for which the cytotoxicity call with HSkMC and in the experiment on HepG2 was “inactive” in each case. Also, the growth inhibition call with S. aureus RN4220 is “inactive”.

As to `C[C@@H]1CN([C@H](C)CO)C(=O)c2cc(NS(=O)(=O)c3cccs3)ccc2O[C@@H](C)CCCCO[C@H]1CN(C)C(=O)C1CCCCC1`, the cytotoxicity call in the experiment with HSkMC and in the experiment with HepG2 was “inactive” throughout. Besides, the growth inhibition call in the experiment with S. aureus RN4220 is “inactive”.

Take `Oc1ccc2c(c1)OCC1(O)Cc3cc(O)c(O)cc3C21` (configuration not stated): the cytotoxicity call in the experiment with HSkMC and in the experiment with HepG2 was “inactive” each time. For the same compound, the growth inhibition call with S. aureus RN4220 was “inactive”.

Consider `COc1ccc(cc1)S(=O)(=O)N1C[C@]2(CN(Cc3ccncc3)[C@@H](CO)c3[nH]c4cc(ccc4c32)OC)C1`, for which the cytotoxicity call in the experiment with HSkMC and with HepG2 was “inactive” throughout. Also, the growth inhibition call in the experiment on S. aureus RN4220 was “inactive”.

Take `Cc1noc(C)c1S(=O)(=O)Nc1ccc2c(c1)C(=O)N([C@H](C)CO)C[C@H](C)[C@@H](CN(C)S(C)(=O)=O)OCCCC[C@H](C)O2`: the cytotoxicity call in the experiment on HSkMC and with HepG2 was “inactive” throughout. For the same compound, the growth inhibition call in the experiment on S. aureus RN4220 is “inactive”.

In the case of `C[C@@H]1O[C@H]2Oc3c(-c4ccc(O)cc4)oc4cc(O)c(c(O)c4c3=O)-c3cc(ccc3O)/C=C\C(=O)OC[C@H]3O[C@@H](O[C@H]([C@H]1O)[C@H]2O)[C@H](O)[C@@H](O)[C@@H]3O`, the cytotoxicity call in the experiment on HSkMC and in the experiment on HepG2 was “inactive” in each case. Also, the growth inhibition call with S. aureus RN4220 is “inactive”.

In the case of `C[C@@H]1CCCCO[C@H](CN(C)S(C)(=O)=O)[C@@H](C)CN([C@H](C)CO)C(=O)c2cc(NS(=O)(=O)c3ccc(F)cc3)ccc2O1`, the cytotoxicity call in the experiment on HSkMC and in the experiment on HepG2 was “inactive” in each case. For the same compound, the growth inhibition call in the experiment with S. aureus RN4220 was “inactive”.

Take `C[C@@H]1CN([C@H](C)CO)C(=O)c2cc(NC(=O)Nc3cccc4ccccc34)ccc2O[C@@H](C)CCCCO[C@H]1CN(C)S(=O)(=O)c1ccc(F)cc1`: the cytotoxicity call in the experiment with HSkMC and in the experiment with HepG2 was “inactive” throughout. Also, in the experiment with S. aureus RN4220, the growth inhibition call is “inactive”.

For `C[C@H](CO)N1C[C@H](C)[C@H](CN(C)C(=O)Nc2ccc3c(c2)OCO3)Oc2ccc(NC(=O)Nc3ccc(C(F)(F)F)cc3)cc2C1=O`, the cytotoxicity call in the experiment on HSkMC and with HepG2 was “inactive” each time. In addition, in the experiment with S. aureus RN4220, the growth inhibition call was “inactive”.

`COc1ccc(S(=O)(=O)Nc2ccc3c(c2)C(=O)N([C@@H](C)CO)C[C@@H](C)[C@@H](CN(C)C(=O)NC2CCCCC2)OCCCC[C@H](C)O3)cc1`: the cytotoxicity call with HSkMC and in the experiment on HepG2 was “inactive” throughout. In addition, in the experiment with S. aureus RN4220, the growth inhibition call was “inactive”.

In the case of `C[C@H]1CN([C@@H](C)CO)C(=O)Cc2cc(NC(=O)CCC(F)(F)F)ccc2O[C@@H]1CN(C)Cc1ccc(C(=O)Nc2ccccc2N)cc1`, the cytotoxicity call in the experiment with HSkMC and in the experiment on HepG2 was “inactive” in each case. For the same compound, in the experiment with S. aureus RN4220, the growth inhibition call is “inactive”.

As for `COc1ccccc1C#Cc1ccc2c(c1)O[C@@H](CN(C)Cc1cccnc1)[C@@H](C)CN([C@H](C)CO)S2(=O)=O`, the cytotoxicity call in the experiment with HSkMC and with HepG2 was “inactive” in each case. The growth inhibition call in the experiment on S. aureus RN4220 is “inactive”.

On to `COc1cc(OC)nc([C@@H](NC(=O)C2CCN(Cc3ccc(Oc4ccccc4)cc3)CC2)c2ccccc2C)n1`, for which the cytotoxicity call with HSkMC was “inactive”. The cytotoxicity call in the experiment on HepG2 is “active”. For the same compound, the growth inhibition call in the experiment with S. aureus RN4220 is “inactive”.

Consider `C[C@@H]1CN([C@@H](C)CO)C(=O)c2cc(NC(=O)CCC(F)(F)F)ccc2O[C@@H](C)CCCCO[C@@H]1CN(C)C(=O)Nc1ccc(C(F)(F)F)cc1`, for which the cytotoxicity call with HSkMC and with HepG2 was “inactive” throughout. The growth inhibition call with S. aureus RN4220 was “inactive”.

For `COc1ccc(S(=O)(=O)Nc2cccc3c2O[C@@H](CN(C)C(=O)Nc2cccc4ccccc24)[C@@H](C)CN([C@H](C)CO)C3=O)cc1`, the cytotoxicity call in the experiment on HSkMC and in the experiment with HepG2 was “inactive” in each case. Moreover, the growth inhibition call in the experiment with S. aureus RN4220 is “inactive”.

For `COc1ccc(NC(=O)N(C)C[C@@H]2Oc3c(NC(=O)c4ccc(-c5nccs5)cc4)cccc3C(=O)N([C@H](C)CO)C[C@H]2C)cc1`, the cytotoxicity call in the experiment with HSkMC and in the experiment on HepG2 was “inactive” throughout. Also, in the experiment with S. aureus RN4220, the growth inhibition call is “inactive”.

On to `O=C(C[C@H]1C=C[C@H](NC(=O)C2CCOCC2)[C@H](CO)O1)NCCc1cscn1`, for which the cytotoxicity call in the experiment with HSkMC and with HepG2 was “inactive” each time. The growth inhibition call with S. aureus RN4220 is “inactive”.

For `CO[C@H]1CN(C)C(=O)c2cc(NS(=O)(=O)c3ccccc3)ccc2OC[C@H](C)N(C(=O)NC(C)C)C[C@H]1C`, the cytotoxicity call in the experiment on HSkMC (human skeletal muscle cells) and with HepG2 was “inactive” throughout. Further, the growth inhibition call with S. aureus RN4220 is “inactive”.

As to `Nc1cnc2ncc(N)cc2c1`, the cytotoxicity call with HSkMC and in the experiment on HepG2 was “inactive” each time. In the experiment on S. aureus RN4220, the growth inhibition call is “inactive”.
